From the supplement of paper PMC6531468
The list shows a part of the results. Values come from read counts of a selection and are noisy. Scores sum up all selected molecules that hold the word; the word was not tested alone.

tested on: IMP3 KH3-4; assay: 6-mer SELEX enrichment z-score vs GST control; IMP3 is the RNA-binding protein IGF2BP3; higher = more enriched by binding; conditions: construct: KH3-4 (377-579); SELEX round: R4
Method: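 SELEX-seq with GST-tagged IMP3 KH3-4 (Pro377-Lys579) and an N40 RNA pool, round 4. 6-mer z-score of sequence-tag enrichment normalised to the corresponding GST SELEX round; RNA k-mers written as DNA (T for U).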

Chain of IMP3 KH3-4 (chain, as listed by the source): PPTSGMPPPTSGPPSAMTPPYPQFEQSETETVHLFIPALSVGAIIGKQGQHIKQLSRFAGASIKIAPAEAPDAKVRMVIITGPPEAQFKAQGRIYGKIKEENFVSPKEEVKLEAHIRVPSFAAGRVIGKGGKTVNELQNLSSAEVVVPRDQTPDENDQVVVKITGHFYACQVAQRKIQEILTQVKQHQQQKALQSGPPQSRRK

Row | Sequence | 6-mer SELEX enrichment z-score
1 | ACAGTT | 0.343
2 | CACCCT | -1.34
3 | GCCTCT | -0.463
4 | CAGCCC | -1.36
5 | TCTCTT | 0.473
6 | TGGTGC | -0.246
7 | TACTAA | 1.04
8 | CAGCGT | -2.64
9 | ACCACC | -1.67
10 | TAACCG | -0.597
11 | GTCGTG | 0.153
12 | CCTGGG | -0.743
13 | GGGTAC | -0.132
14 | ATCGCT | 0.23
15 | TAATAG | 1.5
16 | CAACAG | -0.654
17 | AACATC | -0.582
18 | GAGGTG | 0.389
19 | GTAAAA | 0.088
20 | TACCGC | -0.429

Row | Sequence | 6-mer SELEX enrichment z-score
21 | CTAGTC | -0.14
22 | GAGGAC | 0.322
23 | TCGGTG | 0.114
24 | CTACTA | 0.628
25 | CAGCAC | -0.049
26 | TGCGAA | -0.713
27 | AAACAT | 1.84
28 | GCAGGG | 0.761
29 | AATATT | 2.8
30 | TTAGCG | -0.276
31 | ATCCGT | -0.315
32 | TACCGG | -0.244
33 | AACATG | 1.56
34 | CTTTCG | -0.126
35 | ATCGCG | -0.698
36 | GGTCGC | 0.324
37 | GTCGTC | -0.015
38 | GATTCG | 0.087
39 | CATTTG | 0.362
40 | GGTGAG | 0.536
